Measurements published in the supplement of paper PMC3656093.
Where “and” joins values, the source holds several entries; their conditions need not be identical. Equal values may be shown once. ± gives the standard deviation of the averaged measurements. Whole data set: some 1,900 compounds, median “CD40L-induced NF-kB luciferase activity, plate-corrected, relative to DMSO (0) and IKK inhibitor VII (-100) controls” near 0.032, cut for the lowest 2% near -26. Some of the results follow.

The compounds below were run on BL2-NFkB-Luc (assay: CD40L-induced NF-kB luciferase activity, plate-corrected, relative to DMSO (0) and IKK inhibitor VII (-100) controls (% normalized activity); higher = more NF-kB reporter activity (less inhibition)). Details: 9.4 µM; stimulus: tCD40L 64 ng/ml; 4.5 h.
Method: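 BL2 B cells with a stable NF-kB response-element luciferase reporter (BL2-NFkB-Luc), 384-well. Cells were pre-incubated with compound at 9.4 uM for 1 h at 37 C, then stimulated with 64 ng/ml trimerized CD40L for 4.5 h; luciferase was read with Steady-Glo. Signal was normalised per plate in Genedata (median DMSO neutral control = 0, median IKK inhibitor VII at 50 uM = -100) with Assay Median plate-pattern correction; duplicate plates.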

First: C=C1[C@@H](C)[C@H]2[C@H](Cc3ccccc3)NC(=O)[C@]23OC(=O)C=C[C@H](O)CCC[C@@H](C)CC=C[C@H]3[C@@H]1O
Second: CN1C[C@H](CNC(=O)OCc2ccccc2)C[C@@H]2c3cccc4c3c(cn4C)C[C@H]21
The “CD40L-induced NF-kB luciferase activity” value of the first is lower: -1.12 ± 2.1 for the first, 4.02 ± 2.5 for the second.

`CCCC(=O)OCC[N+](C)(C)C` and `CCCC(C)(COC(N)=O)COC(=O)NC(C)C` (configuration not stated) are within error of each other in “CD40L-induced NF-kB luciferase activity” value: -5.48 ± 4.7 for the first, -7.09 ± 4.2 for the second.

`CC(=O)c1ccc(-c2ccccc2)cc1` and `COc1ccc(-c2nc3ccccc3c(=O)o2)cc1` are within error of each other in “CD40L-induced NF-kB luciferase activity” value: 32.8 ± 15 for the first, 47.1 ± 21 for the second.

`CNC(=O)Oc1ccc2c(c1)[C@]1(C)CCN(C)[C@@H]1N2C` and `Cc1ccc2c(c1)C1CN(C)CCC1N2C(=O)Nc1cccc(Cl)c1` (configuration not stated) are within error of each other in “CD40L-induced NF-kB luciferase activity” value: -0.043 ± 7.8 for the first, -6.16 ± 2.1 for the second.

`CCN(CC)CCOC(=O)C(O)(c1ccccc1)c1ccccc1` and `CC[N+]1(C)CCCC(OC(=O)C(O)(c2ccccc2)c2ccccc2)C1` (configuration not stated) are within error of each other in “CD40L-induced NF-kB luciferase activity” value: -6.57 ± 6.9 for the first, -3.33 ± 1.4 for the second.

First: C[C@]12CC[C@@H]3c4ccc(O)c(O)c4CC[C@H]3[C@@H]1CC[C@@H]2O
Second: C[C@H]1CC[C@@]2(C)[C@@H](CC[C@@H]3[C@@H]2CC[C@]2(C)[C@@H](O)CC[C@@H]32)C1
The “CD40L-induced NF-kB luciferase activity” value of the first is lower: -22.9 ± 18 for the first, 5.1 ± 1.3 for the second.

`O=C1C=Cc2ccccc2C1=O` and `c1ccc2c(c1)[nH]c1cnccc12` are within error of each other in “CD40L-induced NF-kB luciferase activity” value: 4.88 ± 5.5 for the first, -5 ± 7.4 for the second.

`Cc1cc(Cl)ccc1OC(C)C(=O)O` (configuration not stated) and `COc1ccc(OC)c(C(O)C(C)N)c1` (configuration not stated) are within error of each other in “CD40L-induced NF-kB luciferase activity” value: -1.09 ± 4.6 for the first, 0.245 ± 1.3 for the second.

`CC(=O)Nc1cc([As](=O)(O)O)ccc1O` and `Nc1ccc([As](=O)(O)O)cc1` are within error of each other in “CD40L-induced NF-kB luciferase activity” value: -3.64 ± 1.8 for the first, -6.29 ± 2.6 for the second.

`O=c1[nH]c2ccccc2n1C1CCN(CCCC(c2ccc(F)cc2)c2ccc(F)cc2)CC1` and `O=C(CCCN1CCC2(CC1)C(=O)NCN2c1ccccc1)c1ccc(F)cc1` are within error of each other in “CD40L-induced NF-kB luciferase activity” value: -6.94 ± 4.2 for the first, -1.12 ± 5.6 for the second.

Compared with `CC(C)C[C@H]1C(=O)N2CCC[C@H]2[C@]2(O)O[C@](NC(=O)[C@@H]3C=C4c5cccc6[nH]c(Br)c(c56)CC4N(C)C3)(C(C)C)C(=O)N12` (some centres not stated), `CC(C)C[C@H]1C(=O)N2CCCC2[C@]2(O)O[C@](NC(=O)[C@@H]3C=C4c5cccc6[nH]cc(c56)CC4N(C)C3)(C(C)C)C(=O)N12` (some centres not stated) is lower in “CD40L-induced NF-kB luciferase activity” value: 3.22 ± 1.5 for the first, 0.994 ± 0.31 for the second.

`CC12CN3CC(C)(CN(C1)C3c1cccnc1)C2=O` (configuration not stated) and `CC12CN3CC(C)(CN(C1)C3c1cccs1)C2=O` (configuration not stated) are within error of each other in “CD40L-induced NF-kB luciferase activity” value: 0.834 ± 3.5 for the first, 2.17 ± 3.5 for the second.

Going from `C[C@]12CCC(=O)C=C1CCC1C2CC[C@@]2(C)C1CC[C@@]2(O)CC#N` (some centres not stated) to `C[C@]12CCC(=O)C=C1CC[C@@H]1[C@@H]2CC[C@]2(C)C(=O)CC[C@@H]12`, the “CD40L-induced NF-kB luciferase activity” value rises from -0.607 ± 3.7 to 6.57 ± 1.3.

`CN[C@H](C)[C@H](O)c1ccccc1` and `CCOC(=O)c1cncn1C(C)c1ccccc1` (configuration not stated) are within error of each other in “CD40L-induced NF-kB luciferase activity” value: -2.12 ± 1.3 for the first, -5.88 ± 4.6 for the second.

`CN(C)C(=O)Oc1ccc[n+](C)c1` and `COc1cccc(Oc2c(C)oc3cc(OC(=O)N(C)C)ccc3c2=O)c1` are within error of each other in “CD40L-induced NF-kB luciferase activity” value: 1.38 ± 1.9 for the first, -9.76 ± 10 for the second.

Going from `NC1CCCCC1N.[Cl][Pt][Cl]` (configuration not stated) to `O=c1cccc2n1C[C@H]1C[C@@H]2CN2CCCC[C@@H]12`, the “CD40L-induced NF-kB luciferase activity” value falls from 2.03 ± 0.47 to -0.568 ± 1.9.

`O=Cc1cn(Cc2ccc(F)cc2)c2ccccc12` and `O=c1c2ccccc2[se]n1-c1ccccc1` are within error of each other in “CD40L-induced NF-kB luciferase activity” value: 3.44 ± 1.6 for the first, 2.41 ± 3.7 for the second.

`CC(C)C(=O)Nc1ccc(S(=O)(=O)N2CC3CC(C2)c2cccc(=O)n2C3)cc1` (configuration not stated) and `COc1ccc(CN2CC3CC(C2)c2cccc(=O)n2C3)cc1OC` (configuration not stated) are within error of each other in “CD40L-induced NF-kB luciferase activity” value: -4.66 ± 7 for the first, -5.62 ± 3.4 for the second.

Compared with `COc1ccccc1CN1CCCCC1c1cccnc1` (configuration not stated), `c1ccc(Cn2ccnc2)cc1` is higher in “CD40L-induced NF-kB luciferase activity” value: -4.15 ± 3.3 for the first, 0.751 ± 1.6 for the second.

Going from `C[C@H]1OC[C@@H](C[N+](C)(C)C)O1` to `COc1ccc(NC2=NCC(C)S2)cc1` (configuration not stated), the “CD40L-induced NF-kB luciferase activity” value rises from -0.99 ± 1.9 to 6.63 ± 2.

`O=C1CSC2N1CCNC21CCCCC1` (configuration not stated) and `O=C1NCCN2CCCC12` (configuration not stated) are within error of each other in “CD40L-induced NF-kB luciferase activity” value: -1.57 ± 5.5 for the first, 5.53 ± 4.5 for the second.

`CN1[C@@H]2CC[C@H]1CC(OC(=O)C1C=Nc3ccccc31)C2` (some centres not stated) and `C[N+]1(C)C2CCC1CC(OC(=O)C(CO)c1ccccc1)C2` (configuration not stated) are within error of each other in “CD40L-induced NF-kB luciferase activity” value: -2.21 ± 6.7 for the first, -0.877 ± 0.48 for the second.

`Oc1ccc(Cl)cc1Cc1cc(Cl)ccc1O` and `CN1C(=O)CN=C(c2ccc(Cl)cc2)c2cc(Cl)ccc21` are within error of each other in “CD40L-induced NF-kB luciferase activity” value: 2.81 ± 3.4 for the first, 0.372 ± 5.5 for the second.

First: OC(c1ccccc1)(c1ccccc1)C1CCNCC1
Second: c1ccc2c(c1)Nc1ccccc1S2
The “CD40L-induced NF-kB luciferase activity” value of the first is lower: -5.63 ± 0.48 for the first, 9.06 ± 2 for the second.

Going from `CCOc1ccc(N2C(=O)NC(=O)/C(=C\c3cc(OC)c(OC)cc3[N+](=O)[O-])C2=O)cc1` to `Cc1ccc(/C=C2/C(=O)NC(=O)N(C)C2=O)cc1`, the “CD40L-induced NF-kB luciferase activity” value rises from -5.57 ± 0.58 to 0.524 ± 0.61.

Compared with `CC(C)CCC1(CN2CCCC2=O)C(=O)NC(=O)NC1=O`, `CCC1(c2ccccc2)C(=O)N(COC)C(=O)N(COC)C1=O` is lower in “CD40L-induced NF-kB luciferase activity” value: -4.01 ± 4.5 for the first, -30.1 ± 1.2 for the second.

First: CC(=O)[C@H]1CC[C@H]2[C@@H]3CC[C@H]4C[C@H](O)CC[C@]4(C)[C@H]3C(=O)C[C@]12C
Second: O=C1CC[C@@]2(O)[C@H]3Cc4ccc(O)c5c4[C@@]2(CCN3CC2CC2)[C@H]1O5
The “CD40L-induced NF-kB luciferase activity” value of the first is higher: 2.9 ± 3.8 for the first, -8.23 ± 1.6 for the second.

Compared with `c1ccc2c3c([nH]c2c1)CNCC3`, `c1ccc2c(c1)OCC(C1=NCCN1)O2` (configuration not stated) is lower in “CD40L-induced NF-kB luciferase activity” value: -0.0865 ± 4.1 for the first, -12.6 ± 6.5 for the second.

Compared with `CCN(CC)C(=O)N[C@H]1C[C@@H]2c3cccc4[nH]cc(c34)C[C@H]2N(C)C1`, `CC[C@@H](CO)NC(=O)[C@@H]1C=C2c3cccc4c3c(cn4C)C[C@H]2N(C)C1` is higher in “CD40L-induced NF-kB luciferase activity” value: -15 ± 8.3 for the first, 6.16 ± 0.15 for the second.

`CC12CN3CC(c4ccccc4)(CN(C1)C31CCCCC1)C2=O` and `NCC1(c2ccc3c(c2)OCCO3)CCCC1` are within error of each other in “CD40L-induced NF-kB luciferase activity” value: -3.79 ± 3.9 for the first, -4.25 ± 5.6 for the second.

First: C[C@H]1CCCC(=O)CCCCCc2cc(O)cc(O)c2C(=O)O1
Second: C[C@H]1CCCC(=O)CCCC=Cc2cc(O)cc(O)c2C(=O)O1
The “CD40L-induced NF-kB luciferase activity” value of the first is higher: -0.417 ± 2.4 for the first, -13.7 ± 1 for the second.

`OCc1cnc[nH]1` and `NCCc1c[nH]c2ccc(F)cc12` are within error of each other in “CD40L-induced NF-kB luciferase activity” value: 0.917 ± 1.7 for the first, 3.72 ± 5.3 for the second.

`O=c1c2ccccc2nc(/C=C/c2ccc3c(c2)OCO3)n1-c1ccccc1` and `C=CC1CN2CCC1CC2[C@@H](OC(=O)c1ccc(OC)cc1)c1ccnc2ccccc12` (some centres not stated) are within error of each other in “CD40L-induced NF-kB luciferase activity” value: 2.16 ± 1.9 for the first, 1.56 ± 2.6 for the second.

`C=C1CC[C@@]2(O)[C@H]3Cc4ccc(O)c5c4[C@@]2(CCN3CC2CC2)[C@H]1O5` and `CC(C)[C@H]1C(=O)N2CCC[C@H]2[C@]2(O)O[C@](NC(=O)[C@@H]3C=C4c5cccc6[nH]cc(c56)C[C@H]4N(C)C3)(C(C)C)C(=O)N12` are within error of each other in “CD40L-induced NF-kB luciferase activity” value: 1.69 ± 3.1 for the first, -3.13 ± 6.7 for the second.

Compared with `c1cnc2c(c1)ccc1ncccc12`, `CC(C)(C)C(O)C(Oc1ccc(Cl)cc1)n1cncn1` (configuration not stated) is lower in “CD40L-induced NF-kB luciferase activity” value: 7 ± 1.8 for the first, -8 ± 8.5 for the second.

`CCn1c(O)c(C(=O)CC2NCCc3ccccc32)c(=O)n(CC)c1=S` (configuration not stated) was tested, and the “CD40L-induced NF-kB luciferase activity” value was 5.93 ± 5.

In the case of `CN(C)C(=O)Oc1cccc([N+](C)(C)C)c1`, the “CD40L-induced NF-kB luciferase activity” value is reported as 1.42 and 0.748.
